This is an account of results in the antibiotic and cytotoxicity screens of Wong et al. (2023).

The list shows a part of the results.

This assay has as its system HSkMC (human skeletal muscle cells). Kind of assay: cytotoxicity call (relative viability < 0.9). The settings on record: 10 µM.
For the compound `Cc1noc(C)c1NC(=O)Nc1ccc2c(c1)CC(=O)N([C@H](C)CO)C[C@H](C)[C@@H](CN(C)CC1CC1)O2`, the cytotoxicity call is “inactive”.
Next, `C[C@H]1CN([C@@H](C)CO)C(=O)c2cccc(NC(=O)c3ccncc3)c2O[C@H]1CN(C)S(=O)(=O)c1cn(C)cn1`: “inactive”; `Cc1c(Cl)cccc1Nc1ccccc1C(=O)O`: “inactive”; `Nc1nc(CO)cs1`: “inactive”.
For the compound `C[C@H]1CCCCO[C@H](CN(C)C(=O)Nc2cccc3ccccc23)[C@@H](C)CN([C@@H](C)CO)C(=O)c2cc(NC(=O)Nc3cccc4ccccc34)ccc2O1`, the cytotoxicity call was “inactive”.
Take `C[C@H](CO)N1C[C@H](C)[C@@H](CN(C)Cc2ccc(-c3ccccc3)cc2)Oc2c(NC(=O)Nc3ccccc3)cccc2C1=O`: the cytotoxicity call is “inactive”.
With `C[C@@H]1CCCCO[C@H](CN(C)C(=O)Nc2ccccc2)[C@H](C)CN([C@H](C)CO)C(=O)c2cc(NC(=O)NC3CCCCC3)ccc2O1`, the cytotoxicity call is “inactive”.
Under `CNC1C(OC2C(OC3C(O)C(O)C(NC(=N)N)C(O)C3NC(=N)N)OC(C)C2(O)CO)OC(CO)C(O)C1O.O=S(=O)(O)O` (stereo not given) stands “inactive”; under `CN(C)CCCNC(=O)C[C@H]1CC[C@H](NS(=O)(=O)c2ccccc2)[C@@H](CO)O1`, “inactive”; under `C[C@@H]1CCCCO[C@H](CN(C)C(=O)Cc2ccccc2)[C@H](C)CN([C@@H](C)CO)C(=O)c2cc(NC(=O)Nc3ccccc3)ccc2O1`, “inactive”.
With `Cc1noc(C)c1NC(=O)N(C)C[C@@H]1Oc2ccc(NS(=O)(=O)c3ccccc3)cc2C(=O)N([C@H](C)CO)C[C@@H]1C`, the cytotoxicity call is “inactive”.
Consider `COc1ccc(CNC(=O)N(C)C[C@H]2OCc3ccccc3-c3c(n(C)c4ccccc34)C(=O)N([C@@H](C)CO)C[C@H]2C)cc1`, for which the cytotoxicity call was “inactive”.
Under `C[C@@H]1CN([C@H](C)CO)C(=O)c2cc(NC(=O)Nc3cccc4ccccc34)ccc2O[C@H]1CN(C)Cc1ccc(Cl)c(Cl)c1` stands “inactive”; under `O=C(C[C@H]1C[C@@H]2c3cc(NC(=O)c4ccc5c(c4)OCO5)ccc3O[C@@H]2[C@@H](CO)O1)NCC(F)(F)F`, “inactive”.
Under `C[C@H]1CN([C@@H](C)CO)C(=O)Cc2cc(NC(=O)Nc3ccc(C(F)(F)F)cc3)ccc2O[C@H]1CN(C)Cc1ccc(-c2ccccc2)cc1` stands “active”; under `C[C@@H]1CCCCO[C@H](CN(C)C(=O)C2CCCCC2)[C@@H](C)CN([C@H](C)CO)C(=O)c2cc(NS(=O)(=O)c3ccc(Cl)cc3)ccc2O1`, “inactive”.
Regarding `Cc1noc(C)c1NC(=O)Nc1ccc2c(c1)C(=O)N([C@H](C)CO)C[C@@H](C)[C@@H](CN(C)S(=O)(=O)c1ccc(F)cc1)OCCCC[C@@H](C)O2`, the cytotoxicity call is “inactive”.
For `NCc1ccc(-n2cccn2)cc1`, the cytotoxicity call is “inactive”.
Turning to `O=C(NCC[C@@H]1CC[C@@H](NS(=O)(=O)c2cccc(F)c2)[C@@H](CO)O1)C1CC1`, the cytotoxicity call was “inactive”.
In the case of `COc1ccc(S(=O)(=O)Nc2ccc3c(c2)[C@H]2C[C@@H](CC(=O)NCC4CC4)O[C@H](CO)[C@H]2O3)cc1`, the cytotoxicity call was “inactive”.
For the compound `CN1CCN(C(=O)c2ccc(N)cc2)CC1`, the cytotoxicity call is “inactive”.
Next, `O=C(CN1CCOCC1)NCC[C@@H]1CC[C@H](NC(=O)c2ccccc2F)[C@H](CO)O1`: “inactive”.
For the compound `CC1(C)C=Cc2cc(C#N)ccc2O1`, the cytotoxicity call is “inactive”.
Consider `C[C@@H]1CCCCO[C@@H](CN(C)C(=O)Cc2ccccc2)[C@H](C)CN([C@@H](C)CO)C(=O)c2cc(NC(=O)Nc3ccc(C(F)(F)F)cc3)ccc2O1`, for which the cytotoxicity call is “inactive”.
`COCC(=O)N1CC[C@]2(CC1)CN([C@H](CO)c1c2c2ccc(cc2n1C)OC)C(=O)Cc1ccccc1`: the cytotoxicity call was “inactive”.
For the compound `COc1cccc(C#Cc2ccc3c(c2)O[C@@H](CN(C)C(=O)c2ccccn2)[C@H](C)CN([C@H](C)CO)S3(=O)=O)c1`, the cytotoxicity call is “inactive”.
Next, `Cc1ccc(S(=O)(=O)N(C)C[C@@H]2OCCCC[C@H](C)Oc3ccc(NC(=O)Nc4ccc5c(c4)OCO5)cc3C(=O)N([C@H](C)CO)C[C@H]2C)cc1`: “inactive”.
Next, `COc1ccc(S(=O)(=O)N(C)C[C@H]2Oc3ccc(N(C)C)cc3CC(=O)N([C@H](C)CO)C[C@@H]2C)cc1`: “inactive”.
With `COCC(=O)N1CC[C@]2(CC1)CN([C@@H](CO)c1[nH]c3cc(ccc3c12)OC)C(=O)Nc1ccccc1F`, the cytotoxicity call was “inactive”.
Take `CNS(=O)(=O)c1ccc2[nH]c(=O)[nH]c2c1`: the cytotoxicity call was “inactive”.
Under `COc1ccc(NC(=O)N(C)C[C@@H]2OCCCC[C@@H](C)Oc3ccc(NS(=O)(=O)c4ccc(OC)cc4)cc3C(=O)N([C@@H](C)CO)C[C@H]2C)cc1` stands “inactive”; under `CC(=O)N(C)C[C@H]1Oc2ncc(C#C[C@H](C)O)cc2C(=O)N([C@H](C)CO)C[C@@H]1C`, “inactive”.
Under `COc1ccc(NC(=O)N(C)C[C@H]2OCCCC[C@H](C)Oc3ccc(NS(=O)(=O)c4ccccc4)cc3C(=O)N([C@@H](C)CO)C[C@H]2C)cc1` stands “inactive”.
Under `CCN(CC)C(=O)N1CCN(CCC#N)CC1` stands “inactive”; under `C[C@H]1CN([C@@H](C)CO)C(=O)c2cc(NS(=O)(=O)c3ccc(F)cc3)ccc2O[C@@H]1CN(C)S(=O)(=O)c1ccc(F)cc1`, “inactive”; under `C[C@H]1CN([C@@H](C)CO)C(=O)c2cc(NS(C)(=O)=O)ccc2O[C@H]1CN(C)Cc1ccc2c(c1)OCO2`, “inactive”.
Turning to `C[C@H](CO)N1C[C@H](C)[C@H](CN(C)S(=O)(=O)c2ccccc2)OCCCC[C@H](C)Oc2ccc(NC(=O)Nc3cccc4ccccc34)cc2C1=O`, the cytotoxicity call is “inactive”.
For `N#CC(c1ccc(Cl)cc1)c1c(Cl)cc(-n2ncc(=O)[nH]c2=O)cc1Cl` (stereo not given), the cytotoxicity call is “inactive”.
Next, `C[C@@H]1CN([C@@H](C)CO)C(=O)c2cc(NC(=O)Cc3cn(C)c4ccccc34)ccc2O[C@H]1CN(C)S(=O)(=O)c1cn(C)cn1`: “inactive”; `CC1OC(OC2C(O)CC(OC3C(O)CC(OC4CCC5(C)C(CCC6C5CCC5(C)C(C7=CC(=O)OC7)CCC65O)C4)OC3C)OC2C)CC(O)C1O` (stereo not given): “active”.
